Here are results for 37 molecules from PubChem BioAssay AID1159614 (National Center for Advancing Translational Sciences (NCATS), 2016).

Out of some 45,000 compounds screened, about 65 (0.1%) were called active. Calls come from the whole dose curve; as a rule, active = well fitted activation curve with a large enough effect; inconclusive = small, poorly fitted or top-dose-only effect; inactive = no such curve, though single readings can be large or run the other way. The list shows a part of the results.

The assay concerns the target Galactocerebrosidase (Homo sapiens) (UniProt P54803). As to the kind of experiment: A Novel Cell-Based Assay to Identify Small Molecules for B -Galactocerebrosidase. Note: 0% is about no effect; nearly all actives have a fitted effect of over 65% in size. The settings on record: 145M-Twi-hGALC-G270D cells (Twitcher mouse brain line with human GALC G270D), HMU-beta-Gal fluorescence, 48 h; series mostly up to 57.5 µM; activation: at the top concentration. The method in brief: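 Fluorogenic HMU-b-Gal hydrolysis (0.1 mM final, pH 5.2 citrate-phosphate with 1 mg/mL sodium taurocholate; carbonate stop buffer) measures mutant GALC activity after compound treatment of live 145M-Twi Twitcher brain cells stably carrying human GALC-G270D, with wild-type GALC line alongside; activation sought.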
UniProt P54803, sequence (P54803 whole entry, looked up): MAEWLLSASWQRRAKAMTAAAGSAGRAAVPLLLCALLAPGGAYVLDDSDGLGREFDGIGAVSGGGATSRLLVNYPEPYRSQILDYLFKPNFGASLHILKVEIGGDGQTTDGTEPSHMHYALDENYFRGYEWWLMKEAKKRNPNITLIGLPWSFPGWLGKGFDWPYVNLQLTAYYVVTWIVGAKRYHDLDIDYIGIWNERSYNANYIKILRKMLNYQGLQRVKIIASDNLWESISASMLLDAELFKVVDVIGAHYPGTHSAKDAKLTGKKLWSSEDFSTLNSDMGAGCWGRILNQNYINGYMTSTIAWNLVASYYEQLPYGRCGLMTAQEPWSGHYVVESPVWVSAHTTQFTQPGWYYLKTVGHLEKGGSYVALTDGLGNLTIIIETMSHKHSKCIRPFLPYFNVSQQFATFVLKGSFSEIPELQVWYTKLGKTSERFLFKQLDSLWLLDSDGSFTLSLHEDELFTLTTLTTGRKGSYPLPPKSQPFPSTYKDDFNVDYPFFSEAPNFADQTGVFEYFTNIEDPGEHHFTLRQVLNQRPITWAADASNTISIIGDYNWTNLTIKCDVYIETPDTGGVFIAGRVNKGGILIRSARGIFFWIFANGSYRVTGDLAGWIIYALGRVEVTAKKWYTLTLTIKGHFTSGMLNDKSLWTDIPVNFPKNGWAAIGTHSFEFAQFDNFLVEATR
`O=C(Cn1cc(SCc2cccc(F)c2)c2ccccc21)N1CCOCC1`: the “activation” value is inactive: -6.91%.
For `CCCC(=O)OC1=CN(Cc2ccccc2)S(=O)(=O)c2ccccc21` the value was inactive: -10.2%; for `CCOC(=O)c1c(SCC(=O)Nc2nc3ccc(C)cc3s2)nc(=O)[nH]c1C`, inactive: -4%; for `CCC(=O)N1N=C(c2ccc(OC)cc2)CC1c1cn(-c2ccccc2)nc1-c1cccs1` (configuration not stated), inactive: -10.6%.
With `O=C(c1cc(-c2ccc(Br)cc2)n[nH]1)N1CCN(S(=O)(=O)c2ccc(Br)cc2)CC1` the figure was inactive: -12.1%; with `CN(C)C(=N)N=C(N)N`, inactive: -13%; with `COC(=O)CSc1nc2c(cnn2-c2ccc(F)cc2)c(=O)[nH]1`, inactive: -13.9%.
For `CCOc1ccc(N(c2nc(-c3ccc(OC)c(OC)c3)no2)c2nc(-c3ccc(OC)c(OC)c3)no2)cc1`, the “activation” value was inactive: -7.74%.
Consider `CC(=O)N1c2ccc(S(=O)(=O)N3CCN(c4ccc(C)cc4C)CC3)cc2CC1C` (configuration not stated), for which the “activation” value is inactive: -2.18%.
As for `O=C(Cn1ccn(-c2ccc(F)cc2)c(=O)c1=O)NCCc1ccccc1`, the “activation” value was inactive: -8.99%.
Consider `CCOC(=O)c1cnc2ccc(C)cc2c1Nc1ccc(OCc2ccccc2Cl)cc1`, for which the “activation” value was inactive: -16.1%.
As to `COc1ccccc1N(CC(=O)NCCSCc1ccccc1Cl)S(C)(=O)=O`, the “activation” value is inactive: -2.23%.
For `CCc1ccccc1NC(=O)Cn1ncc2c(C)n(Cc3ccccc3F)c(C)c2c1=O` the value was inactive: -9.5%.
For `CC(C)CNC(=O)CCSc1nc(-c2ccc3c(c2)OCO3)cc(C(F)(F)F)n1` the value was inactive: -4.08%.
With `CCc1ccc(NC(=O)CC2C(=O)OCCN2CC)cc1` (configuration not stated) the figure was inactive: 7.15%; with `CCOc1ccccc1NC(=O)C(CC(C)C)NS(=O)(=O)c1ccc2c(c1)CCN2C(C)=O` (configuration not stated), inactive: -13.5%; with `CCOC(=O)c1ccc(N2C(=O)c3n[nH]c(-c4cccs4)c3C2c2cccc(F)c2)cc1` (configuration not stated), inactive: -12.2%.
Take `Cc1oc(-c2cccc(Br)c2)nc1CN1CCC(C(=O)NCCc2ccc(Cl)cc2)CC1`: the “activation” value was inactive: -16.6%.
For `CC(C)[C@H](N)C(=O)OCCOCn1cnc2c(=O)[nH]c(N)nc21`, the “activation” value was inactive: -14%.
With `O=C(Cn1c(=O)n(Cc2nc(-c3ccccc3)no2)c(=O)c2cc3c(cc21)OCO3)Nc1ccc(Cl)cc1` the figure was inactive: -11.6%; with `Cc1ccc(C)c(N2CCN(c3ccc(NC(=O)c4cccs4)cc3C(=O)O)CC2)c1`, inactive: -8.09%.
For `CN(C)c1ccc(NC(=O)CCSc2nc(-c3ccco3)cc(C(F)(F)F)n2)cc1` the value was inactive: -25%; for `CCCCN(C)S(=O)(=O)c1cc(-c2nnc3c4ccccc4c(C)nn23)ccc1C`, inactive: -3.6%; for `CCOc1ccc(-n2c(=O)c3c(C)c(C)sc3n(CC(=O)c3ccccc3)c2=O)cc1`, inactive: -19.1%.
With `CCc1ccc(-n2nc(C)c3c(C)cc(=O)n(CC(=O)Nc4ccc(C)c(F)c4)c32)cc1` the figure was inactive: -4.5%; with `CCN(CC)CCCNC(=O)c1c(C)oc2ncn(CC(C)C)c(=O)c12`, inactive: 1.81%.
Turning to `COc1cc(Br)c(C2CC(=O)Nc3cc(OC)c(OC)c(OC)c32)cc1OC` (configuration not stated), the “activation” value was inactive: -8.82%.
For `CC1CCc2c(sc(NC(=O)CCCOc3ccc(C(C)(C)C)cc3)c2C(N)=O)C1` (configuration not stated) the value was inactive: -4.39%; for `COc1ccccc1C(=O)CC1(O)C(=O)N(CC(N)=O)c2ccccc21` (configuration not stated), inactive: -9.9%; for `CCc1ccccc1NC(=O)C1=CC(c2ccc3c(c2)OCO3)=NS(=O)(=O)N1C`, inactive: -4.7%.
For `CCOc1ccccc1NC(=O)Cn1c(=O)n(Cc2ccco2)c(=O)c2cccnc21` the value was inactive: 12.9%; for `CC(C)(C)c1ccc(C(=O)Nc2ccc3nc(SCC(=O)N4CCCC4)sc3c2)cc1`, inactive: -19.3%; for `O=C(CSc1nc(-c2ccccc2)[nH]c1-c1ccc(F)cc1)NC1CCCC1`, inactive: -15%.
`COc1ccccc1C(=O)N1CCC(c2c[nH]c3ccccc23)(c2c[nH]c3ccccc23)CC1`: the “activation” value was inactive: -12.4%.
Turning to `CCC(=O)N1CCc2cc(S(=O)(=O)NC(Cc3ccccc3)C(=O)Nc3ccc(Cl)cc3)ccc21` (configuration not stated), the “activation” value is inactive: -11%.
For `CC(C)c1ccc(S(=O)(=O)Nc2cc3c(cc2NCc2ccccc2)n(C)c(=O)n3C)cc1` the value was inactive: -5.95%.
With `CCCC(=O)Nc1c(C(=O)N2CCN(c3ccccc3)CC2)oc2ccccc12` the figure was inactive: -15.6%.
